Consider 146 sequences from the BET-seq Pho4 binding data (Le et al. 2018).

This is one part of the list. These are noisy estimates, calculated here from bound and input reads.

This assay concerns the target T1, Pho4 (S. cerevisiae) (UniProt P07270).
T1 sequence: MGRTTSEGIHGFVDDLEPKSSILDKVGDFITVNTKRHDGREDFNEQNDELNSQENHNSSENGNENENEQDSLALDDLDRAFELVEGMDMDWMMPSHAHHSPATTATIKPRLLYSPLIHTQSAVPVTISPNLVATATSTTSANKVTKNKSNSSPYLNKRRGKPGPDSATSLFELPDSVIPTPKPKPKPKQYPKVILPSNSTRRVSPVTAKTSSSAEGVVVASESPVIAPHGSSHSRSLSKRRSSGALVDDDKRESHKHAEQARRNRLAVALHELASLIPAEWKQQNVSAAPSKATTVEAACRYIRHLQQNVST
The assay can be described thus: relative binding free energy (BET-seq); higher = weaker binding. Particulars: reference: library average.
On to AAGTGCACGTGGGATA, for which the “relative binding free energy” value turned out to be 0.03 kcal/mol. As to TGGGGCACGTGAGCGG, the “relative binding free energy” value came to 0.11 kcal/mol. For ATTAACACGTGGTAAG, the “relative binding free energy” value was 0.03 kcal/mol. For GTATGCACGTGATTGG the value was 0.13 kcal/mol; for GGTAGCACGTGGATGG, 0.1 kcal/mol; for TTGGACACGTGGGGCG, -0.13 kcal/mol. For GGTTCCACGTGTGTAT the value was 0.12 kcal/mol.

As to TTGTGCACGTGTGGTC, the “relative binding free energy” value turned out to be 0.04 kcal/mol. For TTAATCACGTGTCGTG the value was 0.11 kcal/mol; for AACGTCACGTGTAATG, 0.39 kcal/mol.

On to GGGGTCACGTGTTGCT, for which the “relative binding free energy” value amounted to 0.17 kcal/mol. For TCAGGCACGTGTGTGT the value was -0.08 kcal/mol. For TATATCACGTGTAAGA, the “relative binding free energy” value is 0.2 kcal/mol. For ACAGGCACGTGATGTT the value was 0 kcal/mol; for TGGGACACGTGTTGAG, 0.11 kcal/mol. For GTTTGCACGTGGGGGT the value was 0.06 kcal/mol; for AGATGCACGTGGGATT, -0.05 kcal/mol. The figure for CTAGTCACGTGGTGAG is -0.01 kcal/mol; for GATGGCACGTGGCATT it is -0.04 kcal/mol. Turning to CGGCTCACGTGGATGG, the “relative binding free energy” value was determined as 0.25 kcal/mol. The figure for TAGTGCACGTGTGTGC is 0.08 kcal/mol; for GGATGCACGTGGGTAT it is -0.07 kcal/mol; for GTTGACACGTGTTGAG it is 0.04 kcal/mol. For ACTGGCACGTGAAGGT the value was 0.2 kcal/mol; for TGAGTCACGTGATAAT, 0.15 kcal/mol; for GGGGGCACGTGTGCGC, -0.11 kcal/mol. The figure for TTCGGCACGTGTGATG is 0.09 kcal/mol; for CTTCTCACGTGTCGGG it is 0.22 kcal/mol; for TTATCCACGTGTTAGG it is 0.14 kcal/mol. TGATTCACGTGTCTTT: the “relative binding free energy” value was 0.17 kcal/mol. For TTTGACACGTGATGCG the value was 0.04 kcal/mol; for TTACACACGTGGGTGG, -0.19 kcal/mol.

As for TAAGACACGTGGTCGT, the “relative binding free energy” value was -0.08 kcal/mol. As to ACTGTCACGTGGTCTT, the “relative binding free energy” value is 0.1 kcal/mol. For GGGGACACGTGGAGCG the value was 0.04 kcal/mol; for GGGGCCACGTGTTGGT, -0.04 kcal/mol. The figure for TTGGACACGTGGAATC is 0.32 kcal/mol. For TGTTTCACGTGTTGCC the value was 0.14 kcal/mol; for GGGCTCACGTGGCGGT, 0.2 kcal/mol; for CGGGTCACGTGTTGGT, 0.19 kcal/mol. On to TGTATCACGTGAATGA, for which the “relative binding free energy” value was found to be 0.37 kcal/mol.

CATTGCACGTGCTGGG: the “relative binding free energy” value is -0.02 kcal/mol. The figure for TTTCACACGTGGGTGT is -0.19 kcal/mol; for GTTAGCACGTGTGCGA it is -0.05 kcal/mol; for AGCGGCACGTGTTTAT it is -0.04 kcal/mol.

Take AGCGTCACGTGCTTGT: the “relative binding free energy” value worked out at 0.01 kcal/mol. For GGGGCCACGTGATTAG the value was 0.06 kcal/mol. For GTTTGCACGTGTAAAG the value was 0.2 kcal/mol; for TTTGACACGTGTAAGG, 0.11 kcal/mol; for TGATTCACGTGGGTTG, 0.1 kcal/mol. The figure for CATGGCACGTGTGGCG is -0.18 kcal/mol; for GGGTACACGTGATTGA it is 0.12 kcal/mol; for GTGGTCACGTGAAGCT it is 0.21 kcal/mol. Regarding GCTTTCACGTGTATGT, the “relative binding free energy” value was determined as 0.25 kcal/mol. The figure for GGAAGCACGTGTAGGC is -0.05 kcal/mol; for GGGGGCACGTGCGTTG it is -0.1 kcal/mol. ATTATCACGTGTAATT: the “relative binding free energy” value turned out to be 0.17 kcal/mol. For TTTTCCACGTGTGATT the value was 0.13 kcal/mol; for TCGAACACGTGGGGCG, -0.02 kcal/mol. With ATAAGCACGTGCGTGT, the “relative binding free energy” value was -0.1 kcal/mol.

For the sequence GTTGGCACGTGGGGTG, the “relative binding free energy” value was -0.09 kcal/mol. For the sequence AAAGGCACGTGGCAAG, the “relative binding free energy” value was -0.08 kcal/mol. On to TGTGCCACGTGTGGGG, for which the “relative binding free energy” value is -0.04 kcal/mol. For TGTGTCACGTGGTTCA the value was 0.04 kcal/mol; for TAGTCCACGTGAGGGT, 0.17 kcal/mol.

Regarding GAGTGCACGTGAAGAG, the “relative binding free energy” value was 0.28 kcal/mol.

Turning to AGCGTCACGTGGTTCG, the “relative binding free energy” value was -0.02 kcal/mol.

Turning to TGTGACACGTGTTATA, the “relative binding free energy” value is -0.02 kcal/mol. The figure for AGATTCACGTGGGAAG is 0.39 kcal/mol. Consider GGAGGCACGTGAGCTG, for which the “relative binding free energy” value turned out to be 0.08 kcal/mol. Take TGATGCACGTGTCGTT: the “relative binding free energy” value is -0.07 kcal/mol.

Turning to TGGTTCACGTGTTTTG, the “relative binding free energy” value is 0.19 kcal/mol. For TTGGGCACGTGACAGA the value was -0.05 kcal/mol. As for GGGTACACGTGGCGCA, the “relative binding free energy” value was determined as 0.01 kcal/mol. For GAGGGCACGTGAGTTT the value was 0.26 kcal/mol; for ATGAACACGTGGACGG, 0.13 kcal/mol. The figure for CTTGACACGTGTTGTA is -0.06 kcal/mol; for ATTAGCACGTGGAGGT it is -0.21 kcal/mol; for GCTCGCACGTGATGGT it is 0.06 kcal/mol.

On to TTTCACACGTGTAAGT, for which the “relative binding free energy” value amounted to 0.1 kcal/mol.

Take ATAGCCACGTGGGAAG: the “relative binding free energy” value is 0.07 kcal/mol.

Take ATGTGCACGTGGACGT: the “relative binding free energy” value came to 0 kcal/mol. For TAGGGCACGTGTACTG the value was -0.2 kcal/mol. Take CAATGCACGTGTTGGG: the “relative binding free energy” value is -0.04 kcal/mol.

For ATAATCACGTGGTTTG, the “relative binding free energy” value came out at 0.08 kcal/mol. For ATTTTCACGTGTATAG the value was 0.34 kcal/mol; for ATATACACGTGTTTAA, -0.15 kcal/mol. For AGCGTCACGTGAATGG the value was 0.34 kcal/mol; for TGTGCCACGTGACTGG, 0.01 kcal/mol; for ATATGCACGTGTAAAG, -0.08 kcal/mol. The figure for GGGGACACGTGGAGGT is 0.19 kcal/mol; for ACGGCCACGTGGGGTT it is -0.12 kcal/mol; for ATGCACACGTGGAGTT it is 0.07 kcal/mol. As to CGTATCACGTGAGTGA, the “relative binding free energy” value was determined as 0.42 kcal/mol. Consider TATTGCACGTGGGTTC, for which the “relative binding free energy” value was -0.15 kcal/mol.

Take AAGTTCACGTGGTTTG: the “relative binding free energy” value was determined as 0.33 kcal/mol. For ATAGTCACGTGGTACG the value was -0.02 kcal/mol.

As for CAGTTCACGTGATAGT, the “relative binding free energy” value worked out at 0.37 kcal/mol.

On to ATAGACACGTGTGTAG, for which the “relative binding free energy” value worked out at 0.05 kcal/mol. On to GTAGTCACGTGAGTAG, for which the “relative binding free energy” value was 0.26 kcal/mol. Turning to GTTCTCACGTGAGTTA, the “relative binding free energy” value amounted to 0.44 kcal/mol. The figure for GTTAGCACGTGTTTCG is -0.07 kcal/mol; for CAGTACACGTGGTGCG it is 0.07 kcal/mol; for TATTGCACGTGCGTTA it is -0.16 kcal/mol. For TTCGACACGTGGGTGG the value was -0.07 kcal/mol; for TGCATCACGTGTTAAG, 0.19 kcal/mol. The figure for TGGTGCACGTGATTGT is 0.08 kcal/mol; for TCTGCCACGTGTGTGT it is -0.13 kcal/mol.

In the case of TAAGTCACGTGGATAG, the “relative binding free energy” value is 0 kcal/mol. For TATTTCACGTGTCTGG the value was 0.25 kcal/mol; for GTACTCACGTGGATGG, 0.33 kcal/mol; for GTTAACACGTGTGTGG, 0.14 kcal/mol.

Consider GAGCACACGTGAGGGG, for which the “relative binding free energy” value turned out to be 0.17 kcal/mol. For GGGGACACGTGCTGGC the value was -0.05 kcal/mol.

With AGACGCACGTGGGGAG, the “relative binding free energy” value was -0.24 kcal/mol. The figure for GTTATCACGTGGTTAC is 0.18 kcal/mol.

Regarding ATGGTCACGTGTGATG, the “relative binding free energy” value worked out at 0.25 kcal/mol. For AGGTGCACGTGAGATT the value was 0.16 kcal/mol. For AAATTCACGTGTTTGT the value was 0.23 kcal/mol.

As for AGATGCACGTGTGCTT, the “relative binding free energy” value is 0.07 kcal/mol. For AATAGCACGTGAATTG the value was 0.32 kcal/mol; for AATATCACGTGTTATT, 0.16 kcal/mol.

For TAATGCACGTGGATAT, the “relative binding free energy” value is -0.1 kcal/mol. For CTGGGCACGTGGCGGC the value was -0.18 kcal/mol; for TCGTGCACGTGCAGGG, -0.11 kcal/mol.

As for TGGCGCACGTGTGTTT, the “relative binding free energy” value was -0.01 kcal/mol. ATAGGCACGTGAGTAT: the “relative binding free energy” value was -0.12 kcal/mol. The figure for GCTTGCACGTGGTCTG is -0.12 kcal/mol; for TTGCGCACGTGGTTAC it is -0.1 kcal/mol; for ATTAGCACGTGGCTTA it is -0.22 kcal/mol. The figure for ATGGTCACGTGGCTGA is -0.06 kcal/mol; for GTACGCACGTGAGGTA it is 0.15 kcal/mol. As to TGTCACACGTGTTGAT, the “relative binding free energy” value came out at 0.05 kcal/mol. For TGCGGCACGTGTGCTG the value was -0.09 kcal/mol; for GAATTCACGTGTGGTG, 0.43 kcal/mol.

For TGTTTCACGTGAAAAG, the “relative binding free energy” value was 0.48 kcal/mol. The figure for ATGGGCACGTGAATAG is 0.15 kcal/mol; for GTGAACACGTGGAATG it is 0.07 kcal/mol. For TGAAACACGTGGTGAT the value was -0.09 kcal/mol. The figure for AGGTTCACGTGTCGTG is 0.38 kcal/mol; for AGGATCACGTGTAGGC it is 0.18 kcal/mol; for GGGGTCACGTGCAGCT it is 0.08 kcal/mol. For TGGTTCACGTGTGGAC, the “relative binding free energy” value came to 0.26 kcal/mol.

On to ATGAACACGTGGCGGT, for which the “relative binding free energy” value amounted to 0 kcal/mol. The figure for TCTGGCACGTGGTGAG is -0.17 kcal/mol. The figure for TGTGGCACGTGGAGGG is -0.1 kcal/mol.
